In all, about 110,000 compounds were measured (“z-score”: median about -0.1, highest 2% from about 2 on). The list shows a part of the results. Calls of active or inactive are those of the source.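 Rule for the calls: active = z-score in the third read window above 3 or below -3; inactive = the rest.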
What follows are molecules tested against Metabotropic glutamate receptor 8 (Rattus norvegicus) (UniProt P70579) (assay: rat mGluR8 modulators via GIRK flux, primary screen, cell-based, thallium flux, HTS (AID 488969)). Settings: HEK293 rat mGluR8, GIRK (G protein-gated inwardly rectifying potassium channel) thallium flux, FluoZin2; at 10 µM; stronger effect = higher value; submaximal glutamate (EC20) added with thallium.
UniProt P70579, sequence (P70579 whole entry, looked up): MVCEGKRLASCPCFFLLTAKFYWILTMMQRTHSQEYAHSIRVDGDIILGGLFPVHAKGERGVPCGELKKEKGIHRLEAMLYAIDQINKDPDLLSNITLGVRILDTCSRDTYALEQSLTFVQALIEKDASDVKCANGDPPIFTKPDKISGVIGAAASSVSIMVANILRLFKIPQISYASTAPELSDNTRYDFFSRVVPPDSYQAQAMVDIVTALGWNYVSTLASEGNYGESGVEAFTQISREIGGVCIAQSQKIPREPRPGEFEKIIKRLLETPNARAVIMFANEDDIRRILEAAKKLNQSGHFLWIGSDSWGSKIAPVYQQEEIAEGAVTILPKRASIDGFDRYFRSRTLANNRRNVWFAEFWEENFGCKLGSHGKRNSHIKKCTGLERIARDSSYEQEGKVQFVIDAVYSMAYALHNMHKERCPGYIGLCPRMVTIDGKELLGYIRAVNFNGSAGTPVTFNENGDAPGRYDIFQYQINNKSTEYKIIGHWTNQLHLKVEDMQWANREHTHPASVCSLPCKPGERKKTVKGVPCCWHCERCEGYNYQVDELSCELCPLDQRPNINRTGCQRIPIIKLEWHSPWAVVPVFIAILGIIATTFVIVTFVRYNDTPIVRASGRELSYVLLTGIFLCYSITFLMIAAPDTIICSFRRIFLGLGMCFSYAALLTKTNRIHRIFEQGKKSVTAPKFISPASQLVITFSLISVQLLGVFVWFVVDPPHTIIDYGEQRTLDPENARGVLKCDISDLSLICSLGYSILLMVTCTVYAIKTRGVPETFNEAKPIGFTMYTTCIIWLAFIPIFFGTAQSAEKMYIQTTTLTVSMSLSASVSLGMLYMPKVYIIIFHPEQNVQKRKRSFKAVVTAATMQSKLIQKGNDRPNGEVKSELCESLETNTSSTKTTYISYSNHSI
With `Cn1c(-c2ccccc2O)cc2ccccc21` the z-score was 0.085.
`Cc1ccc(OCC(=O)OC2CCS(=O)(=O)C2)cc1` (configuration not stated) showed a z-score of -0.764.
Molecule `COc1cccc(NC(=O)c2ccccc2-c2nc(-c3ccccc3)no2)c1` has a z-score of -0.435.
Molecule `Cc1cc(C)c(S(=O)(=O)N2CCC(C(=O)NCc3ccc(Cl)cc3Cl)CC2)c(C)c1` has a z-score of 0.412.
`CC1CCCC(C)N1C(=O)CSc1nc(N)c(-c2ccccc2)c(=O)[nH]1` (configuration not stated) gave a z-score of -0.0901.
`CCOC(=O)c1c(-c2ccc(C)o2)csc1NC(=O)CSc1nnc(C)s1` was tested, and the z-score was -1.11.
`CCCCc1cc(=O)oc2cc(C)c(CN3CCCC3)c(O)c12` was tested, and the z-score was -0.825.
`CC1CC(C)CN(S(=O)(=O)c2cccc(C(=O)OCCN3CCCC3=O)c2)C1` (configuration not stated) was tested, and the z-score was -0.00255.
In the case of `C=C(C)c1cccc(C(C)(C)NC(=O)N2CCOCC2)c1`, the z-score was 0.22.
`Fc1cc(Br)ccc1NC(=S)NCCc1ccccc1` was tested, and the z-score was active: 7.09.
Work on `CS(=O)(=O)N(CC(=O)N1CCN(Cc2ccc3c(c2)OCO3)CC1)Cc1ccc(Cl)cc1` yielded a z-score of 0.174.
`COc1ccc(Cn2c(CCC(=O)NCc3ccco3)nc3cccnc32)cc1` showed a z-score of 0.0216.
`CCc1nc(N2CCN(C(=O)c3ccco3)CC2)c2oc3ccccc3c2n1` gave a z-score of -0.615.
With `COc1ccccc1NS(=O)(=O)c1cccc(C(=O)N/N=C2\CC(=O)CC(C)(C)C2)c1` the z-score was 0.104.
In the case of `CCCCCCOC(=O)C1=C(C)NC(=O)NC1c1ccc(O)cc1` (configuration not stated), the z-score was -0.0425.
`CCn1c(-c2ccccc2)csc1=Nc1ccc(S(=O)(=O)O)cc1` showed a z-score of 0.146.
`CCOc1cc(/C=C2/C(=N)N3OC(C)=CC3=NC2=O)ccc1OCCOc1ccccc1` showed a z-score of 0.106.
In the case of `C/C(=N\NC(=O)c1c(Cl)c(C)nn1C)c1cccc(NC(=O)COc2ccccc2)c1`, the z-score was -0.103.
`CCOC(=O)CSCC(=O)Nc1cc(C)ccc1C` gave a z-score of 0.0722.
Molecule `CC(C)NC(=O)c1nn(C)c2ccccc12` has a z-score of -0.161.
Work on `CCN(CC)CCNC(=O)Cn1nc(Cc2cccnc2)c2ccccc2c1=O` yielded a z-score of 0.0418.
`Cc1nc(NC2=NCN(CCc3ccccc3)CN2)nc2c(C)cccc12` was tested, and the z-score was 0.814.
`CCN(CC)C(=O)Oc1ccc2c(=O)c(-c3ccc(OC)cc3)coc2c1` was tested, and the z-score was 1.26.
`O=C(COc1cccnc1[N+](=O)[O-])Nc1ccccc1Sc1ccccc1` gave a z-score of 1.09.
With `COc1cc(NC(=O)COC(=O)[C@@H]2CCCN2S(=O)(=O)c2ccc(Cl)cc2)cc(OC)c1OC` the z-score was -0.518.
`COc1cc(NC(=O)c2ccccc2)c(OC)cc1NC(=O)CN1CCCCC1` showed a z-score of -0.781.
`CCOc1ccc(OCc2cccc(C(=O)N3CCCC3)c2)cc1` was tested, and the z-score was -0.0798.
`C=CCNC(=O)/C(C#N)=C/c1c(N2CC(C)OC(C)C2)nc2ccccn2c1=O` (configuration not stated) showed a z-score of -0.188.
Molecule `CCN(CC)c1ccc(N=Cc2ccc([N+](=O)[O-])o2)cc1` has a z-score of -0.614.
Molecule `O=C(C1CCCN(Cc2ccncc2)C1)N1CCc2ccccc2C1` (configuration not stated) has a z-score of -0.287.
In the case of `CCC(C)(C)n1nnnc1C(c1cc2ccc(OC)cc2[nH]c1=O)N1CCCCC1` (configuration not stated), the z-score was -1.09.
`Cc1cccc(Sc2c([N+](=O)[O-])ncn2C)c1` was tested, and the z-score was -0.369.
`O=C(CNC(=O)c1ccccc1)OC(C(=O)Nc1cc(C(F)(F)F)ccc1Cl)c1ccccc1` (configuration not stated) gave a z-score of 0.333.
`CCCCSc1nc(C)[nH]c1[N+](=O)[O-]` was tested, and the z-score was -0.0317.
`COc1ccc2[nH]c(=O)c(CNc3ccc(C)c(C)c3)cc2c1` gave a z-score of -0.0534.
With `COc1ccc(CNC(=O)C2CCCN(c3nccc(C)n3)C2)cc1` (configuration not stated) the z-score was -0.338.
`Cc1cccc(N2C(=O)C3C(c4ccccc4)OC4(C(=O)c5ccccc5C4=O)C3C2=O)c1` (configuration not stated) showed a z-score of 0.181.
`COC(=O)c1cc2ccccc2c(-c2c(O)ccc3ccccc23)c1O` showed a z-score of 0.0387.
Work on `Cc1cc(C(=O)CSc2nc3ccc(Cl)cc3[nH]2)c(C)n1CC1CCCO1` (configuration not stated) yielded a z-score of -0.188.
`CC(=O)c1ccc(OCC(=O)c2ccc(-c3ccccc3)cc2)cc1` was tested, and the z-score was -0.162.
`COc1ccc2cc(C(=O)NCc3ccco3)c(=O)oc2c1` gave a z-score of -0.0395.
`O=C(O)c1ccc(-n2c(-c3ccc(Br)cc3)n[nH]c2=S)cc1` showed a z-score of 0.033.
Molecule `CCSc1nnc(-c2ccccc2NC(C)=O)c(=O)[nH]1` has a z-score of 0.739.
Work on `CCOC(=O)c1sc(NC(=O)c2cccc(S(=O)(=O)N(CC)CC)c2)cc1C` yielded a z-score of -0.214.
`O=C(COC(=O)C1=COCCO1)Nc1ccc2c(c1)OCO2` was tested, and the z-score was -0.363.
Molecule `Cc1ccc(SCC(=O)Nc2cccnc2)cc1` has a z-score of -0.145.
`CC1(C)CC(=O)C(CCC(=O)c2ccccc2)C(C)(C)N1` (configuration not stated) gave a z-score of 0.26.
For `Fc1ccc(-c2cc3nc4c(c(N5CCOCC5)n3n2)CCCC4)cc1`, the z-score was -0.0496.
With `CCC(C)NC(=O)c1c(F)c(F)c(F)c(F)c1F` (configuration not stated) the z-score was -0.172.
`O=C(CNS(=O)(=O)c1ccccc1)OCC(=O)c1cccc([N+](=O)[O-])c1` showed a z-score of -0.0665.
`Cc1oc(-c2ccccc2)nc1CS(=O)CC(=O)N1CCc2ccccc2C1` (configuration not stated) showed a z-score of -0.164.
For `CCCCNC(=S)N(Cc1ccco1)Cc1cc2cc3c(cc2[nH]c1=O)OCCO3`, the z-score was -0.301.
Molecule `CCn1c(SCC(=O)N/N=C/C=C\c2ccccc2[N+](=O)[O-])nnc1-c1ccccc1` has a z-score of -0.239.
`CCc1ccc(/C=C2\SC(=S)N(CCCC(=O)Nc3nccs3)C2=O)cc1` showed a z-score of 0.0464.
For `Cc1nc2ccccc2n1CC(=O)NCc1ccccc1`, the z-score was 0.413.
`CCC(C)c1ccc(-c2cc(C(=O)OCC(=O)Nc3cc(C)on3)c3ccccc3n2)cc1` (configuration not stated) gave a z-score of 0.436.
Molecule `CC(C)=CC(=O)Nc1ccc(Br)cc1` has a z-score of -0.047.
For `COc1ccc(S(N)(=O)=O)cc1C(=O)NCC1(N2CCCCC2)CCCCC1`, the z-score was -0.667.
For `O=C(O)C1CCN(C(=O)c2ccc(Cl)cc2)CC1`, the z-score was 0.000989.
In the case of `CCOC(=O)c1cc2c(C)n(-c3ccc(OCC)cc3)c(C)c2ccc1=O`, the z-score was 0.0617.
For `COC(=O)C1=NN(C(C)=O)C2(CC(=O)N(c3cc(C)cc(C)c3)C2=O)C1` (configuration not stated), the z-score was -0.25.
With `C=CCOC(=O)CCCC(=O)NC1CCCCC1` the z-score was -0.153.
Molecule `O=[N+]([O-])c1ccc(N2CCN(CCOc3nonc3-c3ccccc3)CC2)c(Cl)c1` has a z-score of -0.143.
For `Cc1cc(C)cc(OCCCOc2cccc3cccnc23)c1`, the z-score was -0.197.
Work on `CC1=CC(C)(C)N(C(=O)CSc2nnc(-c3ccccc3)o2)c2ccc(C)cc21` yielded a z-score of 0.125.
For `O=C(Nc1ccc(Br)cc1F)c1ccncc1`, the z-score was -0.185.
For `COc1cc(N(C(=O)Cc2cccs2)C(C(=O)NC2CCCCC2)c2cccc(OC)c2OC)ccc1-n1cnnn1` (configuration not stated), the z-score was -0.302.
Work on `COc1ccc(S(=O)(=O)N(C)c2ccc(C(=O)NCC3CCCO3)cc2)cc1` (configuration not stated) yielded a z-score of 0.243.
Work on `CCOC(=O)N1CCN(C(=O)c2cccc(NC(=O)c3ccco3)c2)CC1` yielded a z-score of -0.473.
With `COc1ccc(CNC(=O)c2noc(C(C)C)c2[N+](=O)[O-])cc1` the z-score was -0.126.
`CCOc1ccc(C2CC(=O)n3nc(C45CC6CC(CC(C6)C4)C5)nc3S2)cc1OC` (configuration not stated) showed a z-score of -0.36.
For `O=C(CNC(=S)NC(=O)c1ccc(Cl)cc1)c1ccccc1`, the z-score was 1.87.
For `O=c1[nH]nc(Cc2ccc3ccccc3n2)c2ccccc12`, the z-score was -0.226.
In the case of `O=C(O)c1ccc2c(c1)[C@@H]1C=CC[C@@H]1[C@H](c1ccccn1)N2`, the z-score was -0.691.
In the case of `N#Cc1c(NC(=O)COC(=O)C2CC3C=CC2C3)oc(-c2ccccc2)c1-c1ccccc1` (configuration not stated), the z-score was -0.794.
Molecule `CC(C)c1ccc(N2C(=O)CC(Sc3nc4ccccc4o3)C2=O)cc1` (configuration not stated) has a z-score of 0.142.
`C=CCNC(=O)c1ccc(C(=O)c2ccccc2)cc1` showed a z-score of 0.141.
`O=C(CSc1nnc(-c2cccnc2)n1-c1ccccc1)Nc1ccc2c(c1)OCO2` showed a z-score of 0.278.
In the case of `Cc1c(C(=O)NCCN2CCOCC2)oc2ccccc12`, the z-score was -0.335.
`CCCC(C(=O)OCC)P(=O)(c1ccccc1)c1ccccc1` (configuration not stated) showed a z-score of -0.0107.
`O=C(NCCN1CCOCC1)c1ccc(Cl)cc1[N+](=O)[O-]` gave a z-score of 0.289.
`CCCCn1nnnc1NCc1ccc(OC)c(OC)c1OC` showed a z-score of -0.395.
For `Cc1cccc(-c2noc(CN(C(=O)c3ccc4c(c3)OCO4)C(C)C)n2)c1`, the z-score was -0.23.
In the case of `Nc1nnc(Cc2ccc(Cl)c(Cl)c2)s1`, the z-score was -0.0601.
`CNc1cnn(-c2ccc(C)cc2)c(=O)c1Cl` was tested, and the z-score was -0.25.
`c1ccc(CC2CCN(c3nc(N4CCOCC4)nc(N4CCOCC4)n3)CC2)cc1` gave a z-score of -0.0645.
Molecule `CC(SCc1ccccc1)C(=O)N/N=C/c1ccc(OCC(=O)NCc2ccco2)cc1` (configuration not stated) has a z-score of -0.532.
In the case of `Cc1cc(=O)n(C)c(=O)n1CCCCOc1cccc([N+](=O)[O-])c1`, the z-score was -0.0651.
With `Cc1ccc(-c2ccc(CCC(=O)O)n2-c2cccc(O)c2)cc1` the z-score was -0.426.
For `CCNC(=O)c1cc2c(=O)n3cccc(C)c3nc2n(CCc2ccccc2)c1=N`, the z-score was 0.25.
`O=C(NCc1cn(-c2ccccc2)nc1-c1ccccc1)c1ccc([N+](=O)[O-])cc1` showed a z-score of -0.0499.
`Nc1c(C(=O)OCC2CCCO2)c2nc3ccccc3nc2n1-c1ccc2c(c1)OCCO2` (configuration not stated) was tested, and the z-score was -2.73.
`O=C(NCc1ccc(Cl)cc1)C1C2C=CC3(CN(Cc4cccnc4)C(=O)C13)O2` (configuration not stated) gave a z-score of 0.82.
`CCOC(=O)C1C(=O)CC(C)(O)C(C(=O)OCC)C1c1cccs1` (configuration not stated) showed a z-score of 0.0345.
With `O=C1C2C3C=CC([C@@H]2C(=O)N1C1CC1)[C@H]1C(=O)N(C2CC2)C(=O)C31` (some centres not stated) the z-score was -0.0443.
For `CN(C(=O)c1ccno1)c1nnc(-c2cccnc2)s1`, the z-score was 0.629.
`CC(=O)c1ccc(N2CCN(C(=S)Nc3ccccc3)CC2)cc1` gave a z-score of -0.0362.
For `Cc1ccc(C(=O)NC(=S)NNC(=O)c2ccccc2[N+](=O)[O-])cc1`, the z-score was 0.414.
Work on `Cc1cc(Br)ccc1OCCn1ccnc1` yielded a z-score of -0.0572.
`CCOC(=O)C1=C(C)NC2=C(C(=O)CCC2)C1c1cn(Cc2ccc(Cl)cc2Cl)nc1-c1ccccc1` (configuration not stated) gave a z-score of -0.00364.
For `O=c1c2ccccc2nc(-c2ccoc2)n1CCc1ccccc1`, the z-score was 0.134.
For `COc1ccc(/C=N/NC(=O)c2ccco2)cc1Cn1nc(C)cc1C`, the z-score was -0.327.
For `CC(C)c1nc(SCC(=O)Nc2ccc(N3CCOCC3)cc2)c2ccccc2n1`, the z-score was 0.22.
`Cc1ccc(C(=O)Nc2nc3ccccc3n3nnnc23)cc1` was tested, and the z-score was -0.879.
`CCOc1ccc(C(=O)c2nc3c(n2O)CCCCC3)cc1` was tested, and the z-score was -0.438.
`O=C(NCc1ccco1)C(c1ccco1)N(Cc1cccs1)C(=O)Cn1nnc2ccccc21` (configuration not stated) showed a z-score of -0.351.
In the case of `Cc1cc(C)cc(NC(=O)c2cc(S(=O)(=O)NCc3ccco3)ccc2F)c1`, the z-score was 0.0645.
